# From the supplement of paper PMC8728848
# This is one part of the list.
# B1: PhoSpL (Pholiota squarrosa) (peptide)
# chain: APVPVTKLVCDGDTYKCTAYLDFGDGRWVAQWDTNVFHTG
# Key:
# Test in all cases: glycan array binding signal (z-score within array); higher = stronger binding
# Details in all cases: glycan notation: IUPAC condensed, linker removed
# [1] = biological target: Neu5Ac(a2-6)GlcNAc(b1-4)GlcNAc(b1-4)GlcNAc
# In short: (§1)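 Columns mapping to the same glycan were averaged after glycan names were converted to IUPAC-condensed notation. The data come from 3228 arrays in the Consortium for Functional Glycomics database, limited to those with an available protein sequence. Binding is reported as a within-array Z-score averaged across arrays of one protein sequence and across linkers.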
# Neu5Ac(a2-8)Neu5Ac = biological target: Neu5Ac(a2-8)Neu5Ac
# In short: as §1
# [2] = biological target: Neu5Ac(a2-8)Neu5Ac(a2-3)Gal(b1-3)GalNAc(b1-4)[Neu5Ac(a2-3)]Gal(b1-4)Glc
# In short: as §1
# [3] = biological target: Neu5Ac(a2-8)Neu5Ac(a2-3)Gal(b1-3)GalNAc(b1-4)[Neu5Ac(a2-8)Neu5Ac(a2-3)]Gal(b1-4)Glc
# In short: as §1
# [4] = biological target: Neu5Ac(a2-8)Neu5Ac(a2-3)Gal(b1-4)Glc
# In short: as §1
# [5] = biological target: Neu5Ac(a2-8)Neu5Ac(a2-3)Gal(b1-4)GlcNAc
# In short: as §1
# [6] = biological target: Neu5Ac(a2-8)Neu5Ac(a2-3)[Gal(b1-3)GalNAc(b1-4)]Gal(b1-4)Glc
# In short: as §1
# [7] = biological target: Neu5Ac(a2-8)Neu5Ac(a2-3)[GalNAc(b1-4)]Gal(b1-4)Glc
# In short: as §1
# [8] = biological target: Neu5Ac(a2-8)Neu5Ac(a2-8)Neu5Ac
# In short: as §1
# [9] = biological target: Neu5Ac(a2-8)Neu5Ac(a2-8)Neu5Ac(a2-3)Gal(b1-4)Glc
# In short: as §1
# [10] = biological target: Neu5Ac(a2-8)Neu5Ac(a2-8)Neu5Ac(a2-3)[Gal(b1-3)GalNAc(b1-4)]Gal(b1-4)Glc
# In short: as §1
# [11] = biological target: Neu5Ac(a2-8)Neu5Ac(a2-8)Neu5Ac(a2-3)[GalNAc(b1-4)]Gal(b1-4)Glc
# In short: as §1
# [12] = biological target: Neu5Ac(a2-8)Neu5Ac(a2-8)Neu5Ac(a2-8)Neu5Ac(a2-3)[GalNAc(b1-4)]Gal(b1-4)Glc
# In short: as §1
# [13] = biological target: Neu5Ac(a2-8)Neu5Gc(a2-3)Gal(b1-4)GlcNAc
# In short: as §1
# [14] = biological target: Neu5Ac(b2-6)Gal(b1-4)GlcNAc
# In short: as §1
# Neu5Ac(b2-6)GalNAc = biological target: Neu5Ac(b2-6)GalNAc
# In short: as §1
# [15] = biological target: Neu5Ac9Ac(a2-3)Gal(b1-3)GlcNAc
# In short: as §1
# [16] = biological target: Neu5Ac9Ac(a2-3)Gal(b1-4)GlcNAc
# In short: as §1
# [17] = biological target: Neu5Ac9Ac(a2-6)Gal(b1-4)GlcNAc
# In short: as §1
# [18] = biological target: Neu5Gc(a2-3)Gal(b1-3)GlcNAc
# In short: as §1
# [19] = biological target: Neu5Gc(a2-3)Gal(b1-3)[Fuc(a1-4)]GlcNAc
# In short: as §1
# Neu5Gc(a2-3)Gal(b1-4)Glc = biological target: Neu5Gc(a2-3)Gal(b1-4)Glc
# In short: as §1
# [20] = biological target: Neu5Gc(a2-3)Gal(b1-4)GlcNAc
# In short: as §1
# [21] = biological target: Neu5Gc(a2-3)Gal(b1-4)GlcNAc(b1-3)Gal(b1-4)GlcNAc(b1-2)Man(a1-3)[Neu5Gc(a2-3)Gal(b1-4)GlcNAc(b1-3)Gal(b1-4)GlcNAc(b1-2)Man(a1-6)]Man(b1-4)GlcNAc(b1-4)GlcNAc
# In short: as §1
# [22] = biological target: Neu5Gc(a2-3)Gal(b1-4)[Fuc(a1-3)]GlcNAc
# In short: as §1
# [23] = biological target: Neu5Gc(a2-6)Gal(b1-4)GlcNAc
# In short: as §1
# Neu5Gc(a2-6)GalNAc = biological target: Neu5Gc(a2-6)GalNAc
# In short: as §1
# [24] = biological target: Neu5Gc(a2-8)Neu5Ac(a2-3)Gal(b1-4)GlcNAc
# In short: as §1
# [25] = biological target: Neu5Gc(a2-8)Neu5Gc(a2-3)Gal(b1-4)GlcNAc
# In short: as §1
# [26] = biological target: Neu5Gc(a2-8)Neu5Gc(a2-3)Gal(b1-4)GlcNAc(b1-3)Gal(b1-4)GlcNAc
# In short: as §1
# [27] = biological target: Neu5Gc(a2-8)Neu5Gc(a2-6)Gal(b1-4)GlcNAc
# In short: as §1
# [28] = biological target: Neu5Gc(b2-6)Gal(b1-4)GlcNAc
# In short: as §1
binder,measurement,setting,value
B1,glycan array binding signal (z-score),[1],0.411
same,glycan array binding signal (z-score),Neu5Ac(a2-8)Neu5Ac,0.064
same,glycan array binding signal (z-score),[2],-0.079
same,glycan array binding signal (z-score),[3],-0.747
same,glycan array binding signal (z-score),[4],-0.197
same,glycan array binding signal (z-score),[5],0.356
same,glycan array binding signal (z-score),[6],-0.285
same,glycan array binding signal (z-score),[7],-0.373
same,glycan array binding signal (z-score),[8],-0.13
same,glycan array binding signal (z-score),[9],0.137
same,glycan array binding signal (z-score),[10],0.275
same,glycan array binding signal (z-score),[11],-0.502
same,glycan array binding signal (z-score),[12],-0.056
same,glycan array binding signal (z-score),[13],-0.733
same,glycan array binding signal (z-score),[14],-0.229
same,glycan array binding signal (z-score),Neu5Ac(b2-6)GalNAc,-0.334
same,glycan array binding signal (z-score),[15],-0.245
same,glycan array binding signal (z-score),[16],0.226
same,glycan array binding signal (z-score),[17],-0.099
same,glycan array binding signal (z-score),[18],-0.149
same,glycan array binding signal (z-score),[19],-0.19
same,glycan array binding signal (z-score),Neu5Gc(a2-3)Gal(b1-4)Glc,-0.255
same,glycan array binding signal (z-score),[20],-0.522
same,glycan array binding signal (z-score),[21],-0.036
same,glycan array binding signal (z-score),[22],-0.216
same,glycan array binding signal (z-score),[23],-0.269
same,glycan array binding signal (z-score),Neu5Gc(a2-6)GalNAc,-0.515
same,glycan array binding signal (z-score),[24],-0.39
same,glycan array binding signal (z-score),[25],-0.441
same,glycan array binding signal (z-score),[26],-0.492
same,glycan array binding signal (z-score),[27],-0.285
same,glycan array binding signal (z-score),[28],0.132
